Assay [1] addresses FVIII (as used in the competition ELISA of Example 21; form not stated) (UniProt P00451). Kind of assay: competition ELISA; competitor coated human VWF; FVIII 1 nM pre-incubated with plasma derived VWF. A general note: ELISA stands for enzyme-linked immunosorbent assay.
For assay [2], the target named is Radioactively labelled FVIII (125I-FVIII) (UniProt P00451). As to the kind of experiment: cell-based or functional assay.

One may read the IC50 as the concentration that gives 50% inhibition. Read a high IC50 as weaker potency in that assay.

The substance “Plasma derived full length VWF, VWF ([…]) (a stretch of the chain, sequence left out)” yielded an IC50 in assay [1] of 1.1 nM.

Consider “Plasma derived full length VWF, VWF ([…]) (a stretch of the chain, sequence left out) (other; 125I label)”, for which, in assay [2], the IC50 (nM), inhibition of FVIII binding to U87 MG cells was found to be 1.2 nM; the IC50 (nM), inhibition of FVIII internalization in U87 MG cells was found to be 1.3 nM; the Maximal inhibition (%), FVIII binding to U87 MG cells worked out at 34.3%; the Maximal inhibition (%), FVIII internalization in U87 MG cells was 32.2%.
